From PubChem BioAssay AID488969 (Vanderbilt High Throughput Screening Facility, 2010)
Whole data set: some 110,000 compounds, median “z-score” near -0.1, cut for the highest 2% near 2. This is one part of the list. Activity calls are given as the source filed them.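 Rule for the calls: active = z-score in the third read window above 3 or below -3; inactive = the rest.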

These compounds were tested against Metabotropic glutamate receptor 8 (Rattus norvegicus) (UniProt P70579) (assay: rat mGluR8 modulators via GIRK flux, primary screen, cell-based, thallium flux, HTS (AID 488969)). Settings: HEK293 rat mGluR8, GIRK (G protein-gated inwardly rectifying potassium channel) thallium flux, FluoZin2; at 10 µM; stronger effect = higher value; submaximal glutamate (EC20) added with thallium.
Chain of UniProt P70579 (P70579 whole entry, looked up): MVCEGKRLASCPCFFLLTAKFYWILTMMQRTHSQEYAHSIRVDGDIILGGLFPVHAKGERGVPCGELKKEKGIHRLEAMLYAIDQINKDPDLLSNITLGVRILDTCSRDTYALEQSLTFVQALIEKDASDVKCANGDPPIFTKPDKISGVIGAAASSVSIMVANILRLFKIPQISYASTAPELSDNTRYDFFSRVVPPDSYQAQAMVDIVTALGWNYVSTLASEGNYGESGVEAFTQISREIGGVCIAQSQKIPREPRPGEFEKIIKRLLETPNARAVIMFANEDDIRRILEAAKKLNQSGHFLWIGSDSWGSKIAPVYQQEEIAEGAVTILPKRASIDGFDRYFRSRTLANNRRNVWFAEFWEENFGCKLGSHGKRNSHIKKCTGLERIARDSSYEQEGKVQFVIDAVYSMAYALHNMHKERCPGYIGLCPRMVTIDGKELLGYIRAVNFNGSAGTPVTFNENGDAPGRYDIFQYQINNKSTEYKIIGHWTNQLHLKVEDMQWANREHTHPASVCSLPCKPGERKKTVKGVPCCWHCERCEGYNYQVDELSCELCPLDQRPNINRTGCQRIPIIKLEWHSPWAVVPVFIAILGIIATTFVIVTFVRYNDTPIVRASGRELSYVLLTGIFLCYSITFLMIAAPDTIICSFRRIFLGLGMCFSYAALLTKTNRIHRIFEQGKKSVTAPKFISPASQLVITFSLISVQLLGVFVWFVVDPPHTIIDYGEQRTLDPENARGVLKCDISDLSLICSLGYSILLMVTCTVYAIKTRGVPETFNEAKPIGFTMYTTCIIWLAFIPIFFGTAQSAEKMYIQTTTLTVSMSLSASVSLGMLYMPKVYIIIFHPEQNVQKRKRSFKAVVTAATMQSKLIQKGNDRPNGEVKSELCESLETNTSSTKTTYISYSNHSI

Going from `O=C(NNC(=O)c1cccnc1)Nc1cccc(Cl)c1Cl` to `COc1cccc(C(=O)Nc2cnc(NC(=O)c3ccco3)cc2C)c1`, the z-score rises from -0.606 to -0.117.

Going from `Cc1nn(CC(=O)Nc2ccc(C(=O)N(C)C)cc2)c(=O)c2ccccc12` to `CCC(=O)Nc1cc(-c2nn(C)c(=O)c3ccccc23)ccc1OC`, the z-score falls from -0.0892 to -0.769.

First: Cc1ccc(S(=O)(=O)Nc2c(C)[nH]c(=O)[nH]c2=O)cc1C
Second: Cc1noc(C)c1COC(=O)[C@H](C)NS(=O)(=O)c1ccc(Cl)c(Cl)c1
The z-score of the first is lower: -0.15 for the first, -0.0784 for the second.

First: Cc1cc(-c2ccccc2)nc2[nH]n(-c3ccccc3)c(=O)c12
Second: Cc1c(NC(=O)c2ccccc2)c(=O)n(-c2ccccc2)n1C
The z-score of the first is higher: -0.196 for the first, -0.317 for the second.

Going from `CCOC(=O)CC(=O)Nc1c(C)cc(C)cc1C` to `CCOC(=O)Cc1csc(NC(=O)CSc2nc(N)c3c(C)c(C)sc3n2)n1`, the z-score falls from 0.312 to -0.0512.

Compared with `Oc1ccc(N=Nc2cccc(Cl)c2)cc1C=Nc1ccc(N2CCOCC2)cc1`, `O=C(NCc1ccco1)c1ccc(COc2cc(Cl)ccc2Cl)cc1` is higher in z-score: -0.0987 for the first, 0.104 for the second.

Compared with `Cc1nn(Cc2ccccc2)c(C)c1NC(=O)CSc1n[nH]c(C)c1[N+](=O)[O-]`, `O=C(Nc1ccn(Cc2ccccc2)n1)c1n[nH]c([N+](=O)[O-])c1Cl` is lower in z-score: -0.0292 for the first, -0.885 for the second.

First: O=c1[nH]nc(SCc2ccccc2)c(=O)[nH]1
Second: CCC(=NCc1ccccc1)C1=C(O)C(C(=O)OC)C(C)(C)CC1=O (centres undefined)
The z-score of the first is lower: -0.199 for the first, 0.197 for the second.

First: COc1cccc(NC(=S)N(CCCN2CCOCC2)Cc2cn(C)c3ccccc23)c1
Second: Cc1noc(C)c1S(=O)(=O)NCCN1CCN(c2ccccc2)CC1
The z-score of the first is higher: -0.541 for the first, -0.863 for the second.

Going from `c1ccc(-n2ncc3c(NCc4ccc5c(c4)OCO5)ncnc32)cc1` to `CCC(Sc1ncnc2c1c(-c1ccccc1)cn2-c1ccc(OC)cc1)C(=O)OC` (centres undefined), the z-score falls from 0.0779 to -0.341.

Compared with `CCOC(=O)c1[nH]c2ccccc2c1NC(=O)CCN1CCN(C(=O)OCC)CC1`, `CCOC(=O)N1CCN(C(=O)c2ccc3c(c2)sc2nc(-c4ccccc4)cn23)CC1` is lower in z-score: 1.14 for the first, -1.02 for the second.

First: CCCN1CCN(S(=O)(=O)c2ccc(OC)c(Br)c2)CC1
Second: COc1ccc(CC(=O)Nc2cccc(S(=O)(=O)N3CCCCCC3)c2)cc1OC
The z-score of the first is lower: -0.148 for the first, 0.183 for the second.

Going from `CSc1ccc(CN(C)CC(=O)Nc2cccc(Br)c2)cc1` to `CCOc1ccc(NC(=O)CNc2ccc(C)cc2Cl)cc1`, the z-score falls from -0.107 to -0.199.

First: Nc1nc2c(s1)C(=O)CC(c1ccccc1)C2 (centres undefined)
Second: O=C1OCCC1Sc1nc2ccccc2s1 (centres undefined)
The z-score of the first is higher: 0.0058 for the first, -1.76 for the second.

Compared with `O=C1NC(Nc2nc3ccccc3s2)(C(F)(F)F)C(=O)N1C1CCCCC1` (centres undefined), `Cc1nnc(NC(=O)C2CCCN(S(=O)(=O)c3ccccc3C(F)(F)F)C2)s1` (centres undefined) is lower in z-score: 0.11 for the first, -0.201 for the second.

First: O=C(c1ccc(F)cc1)N(NC(=O)C(O)(c1ccccc1)c1ccccc1)c1ccccc1
Second: O=C(CC(c1ccccc1)c1ccccc1)Nc1ccc(Cl)cn1
The z-score of the first is lower: -0.654 for the first, -0.00571 for the second.

Going from `CC(C)n1c(SCC(=O)Nc2ccccc2)nc2c1c(=O)n(C)c(=O)n2C` to `Cn1c(=O)c2c(nc(NCc3ccco3)n2Cc2ccc(Cl)cc2Cl)n(C)c1=O`, the z-score rises from -0.27 to -0.172.

First: Cc1[nH]nc(-c2ccc(O)c(C)c2O)c1Oc1ccccc1
Second: Cc1ccccc1Oc1ccc(-c2nc(N)nc(N)n2)cc1
The z-score of the first is higher: 0.136 for the first, -0.471 for the second.

First: O=C(O)C(c1ccccc1)C1(O)CCCC1 (centres undefined)
Second: N#CC1=C(S)N=C(N)C(c2nc(-c3ccccc3)cs2)C12CCCCC2 (centres undefined)
The z-score of the first is higher: -0.0456 for the first, -0.242 for the second.

Compared with `Cc1ccc(OCCOCCOc2ccc(Br)cc2/C=N\NC(=O)c2ccncc2)cc1`, `CC(=O)c1ccc(OCCCC(=O)Nc2ccc(C)c(S(=O)(=O)N(C)C)c2)cc1` is higher in z-score: -0.161 for the first, 0.136 for the second.

Compared with `CC(NC(=O)C1CCN(S(=O)(=O)c2cc([N+](=O)[O-])ccc2Cl)CC1)c1ccccc1` (centres undefined), `CCCC(C(=O)n1nc(C)cc1C)C(NS(=O)(=O)c1ccc(C)cc1)c1ccccc1` (centres undefined) is higher in z-score: -0.238 for the first, -0.165 for the second.

Compared with `CCN(CC)S(=O)(=O)c1ccc2c3c(cccc13)C(=O)S2`, `CCOc1ccc(N(CC)S(=O)(=O)c2ccc3c(c2)oc(=O)n3C)cc1` is higher in z-score: 0.0309 for the first, 0.841 for the second.

First: Oc1ccc(CNC2CCCCC2)cc1
Second: S=C(NNc1ccc2ccccc2c1)NC1CCCCC1
The z-score of the first is lower: -0.116 for the first, 0.484 for the second.

Compared with `c1ccc(C(c2nnnn2C2CCCCC2)N2CCc3ccccc3C2)nc1` (centres undefined), `CCCN1C(=O)CN(C2CCCCCC2)C(=O)C1c1ccc(C)cc1` (centres undefined) is higher in z-score: -0.238 for the first, -0.153 for the second.

Compared with `C=CCOc1c(Br)cc(/C=N/Nc2ccc(C(=O)O)cc2)cc1OCC`, `COC(=O)c1ccc(/C=C/c2ccc3cccc(OC)c3n2)cc1` is higher in z-score: -0.793 for the first, -0.279 for the second.

Going from `Cc1ccn2cc(-c3ccc(NS(=O)(=O)c4ccccc4)cc3)nc2c1` to `COc1ccc(-n2cnc3cc(NS(=O)(=O)c4ccc(C)cc4)ccc32)cc1`, the z-score falls from 0.0733 to -0.714.

Going from `CC1CCCCN1CC(=O)Nc1sccc1C#N` (centres undefined) to `Cc1nc2ccccc2nc1SCC(=O)N1CCC(C)CC1`, the z-score falls from -0.0952 to -0.613.

First: Clc1ccc(/C=C/c2nc3ccccc3[nH]2)cc1
Second: Cc1nc(NC2=NC(C(=O)Nc3ccc(Cl)cc3)CC(=O)N2)nc2ccccc12 (centres undefined)
The z-score of the first is lower: -0.859 for the first, -0.199 for the second.

Compared with `Cc1ccc(C)c(SCc2noc(C(=O)NC(C)C)c2C(=O)O)c1`, `COCCCNc1nc2c(c(=O)[nH]c(=O)n2C)n1CC(O)COc1ccccc1C` (centres undefined) is higher in z-score: -0.151 for the first, 1.05 for the second.

First: CCN(CC)C(C)C(=O)Nc1c2c(cc3c1CCC3)CCC2 (centres undefined)
Second: CCCn1c2c(c(=N)c3c1CCC3)CCCC2
The z-score of the first is higher: 0.178 for the first, 0.0153 for the second.

First: CC(/C=N/NC(=O)Cc1cccn1C)=C\c1ccco1
Second: CC(=O)N/C(=C\c1ccccc1Cl)C(=O)O
The z-score of the first is lower: -0.21 for the first, -0.0785 for the second.

Going from `CSc1nnc(CNC(=O)C23CC4CC(CC(C4)C2)C3)n1Cc1ccccc1` to `NC(=O)C1CCN(C(=O)C23CC4CC(CC(C4)C2)C3)CC1`, the z-score rises from -0.331 to -0.0229.

Compared with `COc1ccc(/C(N)=N/OC(=O)CSc2ccc(C)cc2)cc1OC`, `COc1ccc(-n2c(C)n[nH]c2=O)cc1OC` is higher in z-score: -0.375 for the first, 0.356 for the second.

First: COc1ccc2cc(CN(Cc3cccs3)Cc3nnnn3Cc3ccccc3)c(=O)[nH]c2c1
Second: Cc1cccc2cc(CN(Cc3ccco3)S(=O)(=O)c3ccc4c(c3)OCCO4)c(=O)[nH]c12
The z-score of the first is higher: 0.659 for the first, -0.806 for the second.

Compared with `O=C(c1cccnc1)N1CCN(S(=O)(=O)c2ccc(S(=O)(=O)N3CCCC3)cc2)CC1`, `COC(=O)Nc1ccccc1C(=O)N1CCN(c2ccc(C)cc2)CC1` is higher in z-score: -0.359 for the first, 0.379 for the second.

First: CC(C)(C)c1ccc(-c2conc2N)cc1
Second: Cn1c(CNc2ccccc2)nc2ccccc21
The z-score of the first is higher: 2.09 for the first, -0.169 for the second.

First: CCC(C)(C)n1nnnc1CN1CCc2ccccc21
Second: Cc1nn(Cc2ccccc2Cl)c(C)c1NC(=O)/C=C/c1cnn(C)c1
The z-score of the first is higher: 0.382 for the first, -0.0832 for the second.

Compared with `COC(=O)c1ccc(C(=O)OC)c(NC(=O)COC(=O)c2ccc(OC)c(OC)c2OC)c1`, `COc1ccc(-c2cn3c(C)c(C(=O)Nc4cc(NC(C)=O)ccc4OC)sc3n2)cc1` is lower in z-score: 0.323 for the first, 0.107 for the second.

First: O=S(=O)(NCc1ccco1)N1CCOCC1
Second: O=C(CSC1=NCCS1)NCc1ccco1
The z-score of the first is higher: 0.458 for the first, -0.376 for the second.

Compared with `Cc1ccc(/C=N/NC(=O)c2cc(C3CC3)nc3ccccc23)o1`, `CC(N=Cc1nc(-c2ccccc2)oc1O)c1ccccc1` (centres undefined) is lower in z-score: -0.0767 for the first, -0.238 for the second.

Going from `Cc1nc2nc(C)c(CCC(=O)N3CCN(c4ccccc4)CC3)c(C)n2n1` to `CCCc1nn(C(=O)c2ccccc2)c2c1C(=O)CC(C)(C)C2`, the z-score rises from -0.107 to 0.0989.

Compared with `CCOC(=O)N1CCN(C(=O)C2CC(c3cc(OC)ccc3OC)=NO2)CC1` (centres undefined), `COc1ccc(-c2n[nH]c(=S)o2)c(OC)c1` is higher in z-score: -0.594 for the first, 0.0321 for the second.

Going from `Nc1cc(=O)[nH]c(SCC(=O)Nc2cccc(Cl)c2)n1` to `CCC(=O)Nc1ccc2c(c1)ncn2-c1ccc(OC)cc1`, the z-score rises from 0.151 to 2.82.

Compared with `COc1cc(CCN2C(=O)c3cccc4cccc(c34)C2=O)c(S(=O)(=O)N2CCCCCC2)cc1OC`, `CCOP(=O)(c1ccccc1)c1nc(-c2ccccc2C)oc1N1CCCCC1` (centres undefined) is lower in z-score: -0.297 for the first, -1.7 for the second.

Compared with `O=C1C(=O)c2c(C(=O)c3ccccc3)coc2-c2ccccc21`, `Cc1ccccc1C(=O)NCCCCc1ccccc1` is lower in z-score: 0.676 for the first, -0.0963 for the second.

First: COc1cc(/C=C/c2cc(OC(C)=O)c3ccccc3n2)c(OC(C)=O)c([N+](=O)[O-])c1
Second: COC(=O)c1cccc(NC(=O)Cc2ccccc2[N+](=O)[O-])c1C
The z-score of the first is lower: -0.233 for the first, -0.17 for the second.

Going from `CC(C)c1ccc(NS(=O)(=O)c2ccc(Cl)nc2)cc1` to `O=S(=O)(Nc1nc2c(s1)CCCC2)c1ccc2ccccc2c1`, the z-score falls from -0.135 to -0.38.

Going from `COc1ccc2c(c1OC)C(=O)OC2Nn1cncn1` (centres undefined) to `COc1ccc(CCNc2nc(-c3sc(C)nc3C)cs2)cc1OC`, the z-score falls from 0.0161 to -1.11.

Going from `COc1ccccc1-c1c(C(F)(F)F)oc2cc(OCC(=O)Nc3cc(C)ccc3C)ccc2c1=O` to `COc1ccccc1-c1nc(S(=O)(=O)c2ccc(Cl)cc2)c(N(C)C)o1`, the z-score falls from 0.891 to 0.0518.

Going from `Cc1ccc(-c2c(C)n([O-])c3c([n+]2=O)CCCCC3)o1` to `Cc1ccc2nc(/C(C#N)=C\c3ccc(N4CCCCC4)c([N+](=O)[O-])c3)[nH]c2c1`, the z-score rises from -0.48 to 1.72.

Going from `Cc1cc(C)cc(NCc2cc3c(cc2[N+](=O)[O-])OCO3)c1` to `Cc1csc(N(C(=O)CCNC(=O)c2ccc([N+](=O)[O-])cc2)c2ccccc2)n1`, the z-score falls from 0.373 to 0.168.

Compared with `CCOCCc1nnc(NC(=O)Cc2ccc(Br)cc2)s1`, `Brc1ccccc1-c1nnc(COc2cccc3cccnc23)o1` is lower in z-score: 0.416 for the first, -1.97 for the second.

First: CCN1CC2=C(OC(N)=C(C#N)C2c2cccs2)/C(=C\c2cccs2)C1 (centres undefined)
Second: CCOC(=O)C1=C(C)N=c2s/c(=C3/C(=O)Nc4ccccc43)c(=O)n2C1c1ccc(C)cc1 (centres undefined)
The z-score of the first is lower: -0.385 for the first, -0.338 for the second.

Going from `CN=C1SC(C(=O)O)CC(=O)N1C` (centres undefined) to `CC1CC(C)CN(CCCNC(=O)CC2Oc3ccccc3NC2=O)C1` (centres undefined), the z-score rises from -0.651 to -0.048.

`CC1(C)CC(=O)C2=C(C1)OC(/N=C/N1CCOCC1)=C(C#N)C2c1ccccc1` (centres undefined) was tested, and the z-score was active: -4.24.
